# The whole screen tested about 310,000 compounds, of which about 14,000 (4.5%) showed an effect of 50% or more. The effect is printed as a negative number. Some of the results follow.
# Target: human ether-à-go-go-related gene (hERG) potassium channel (human, UniProt Q12809)
# Assay: primary screen, population patch clamp on CHO cells stably expressing hERG
# 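Note: peak tail current of the secondary pulse compared with the same well before compound.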
# Sequence of human ether-à-go-go-related gene (hERG) potassium channel (Q12809 whole entry, looked up): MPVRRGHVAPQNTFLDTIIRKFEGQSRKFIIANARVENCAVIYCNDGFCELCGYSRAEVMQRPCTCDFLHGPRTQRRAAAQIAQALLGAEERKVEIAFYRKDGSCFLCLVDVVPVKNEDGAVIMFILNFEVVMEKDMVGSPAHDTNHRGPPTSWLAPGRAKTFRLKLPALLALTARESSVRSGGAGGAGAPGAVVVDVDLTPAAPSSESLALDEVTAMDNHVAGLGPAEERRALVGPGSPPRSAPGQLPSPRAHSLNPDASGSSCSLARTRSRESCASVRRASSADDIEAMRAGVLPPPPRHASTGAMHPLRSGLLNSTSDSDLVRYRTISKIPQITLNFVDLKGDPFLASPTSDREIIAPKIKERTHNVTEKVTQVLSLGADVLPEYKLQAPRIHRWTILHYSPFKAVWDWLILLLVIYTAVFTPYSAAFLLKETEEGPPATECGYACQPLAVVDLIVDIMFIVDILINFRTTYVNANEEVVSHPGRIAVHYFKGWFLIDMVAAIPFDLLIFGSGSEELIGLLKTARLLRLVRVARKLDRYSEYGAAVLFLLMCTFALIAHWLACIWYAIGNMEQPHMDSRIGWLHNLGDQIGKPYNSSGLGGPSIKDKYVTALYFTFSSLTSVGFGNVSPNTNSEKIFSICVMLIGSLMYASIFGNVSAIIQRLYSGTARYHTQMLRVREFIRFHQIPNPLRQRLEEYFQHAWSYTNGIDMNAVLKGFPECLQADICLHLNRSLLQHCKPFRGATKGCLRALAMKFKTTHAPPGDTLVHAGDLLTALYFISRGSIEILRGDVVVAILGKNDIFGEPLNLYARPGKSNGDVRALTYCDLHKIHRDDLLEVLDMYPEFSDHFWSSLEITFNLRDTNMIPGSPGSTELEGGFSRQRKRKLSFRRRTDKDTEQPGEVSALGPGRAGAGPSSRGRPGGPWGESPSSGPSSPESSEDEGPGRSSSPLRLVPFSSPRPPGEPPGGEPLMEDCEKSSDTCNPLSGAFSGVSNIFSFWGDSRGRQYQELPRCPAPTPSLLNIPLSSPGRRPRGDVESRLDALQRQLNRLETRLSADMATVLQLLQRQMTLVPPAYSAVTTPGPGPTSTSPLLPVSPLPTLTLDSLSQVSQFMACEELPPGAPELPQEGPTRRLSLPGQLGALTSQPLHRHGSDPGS
row,SMILES,"hERG current change (%, negative = inhibition) at 10uM"
1,COC(=O)c1c(C(=O)OC)c(-c2ccc(C)cc2)n2c1CS(=O)C2 (stereo not drawn),-53.8%
2,CCOC(=O)CC1C(=O)NCCN1S(=O)(=O)c1ccccc1Cl (stereo not drawn),-7.16%
3,Cc1ccc2nc(Cl)c(-c3ccccc3)cc2c1,-3.06%
4,CCN(CC(=O)NC(C)C)C(=O)[C@H](C)NC(=O)c1ccc(Br)cc1,-2.35%
5,N/C(Cc1cccc2ccccc12)=N\OC(=O)Cc1cccs1,-9.85%
6,Cc1cc(Nc2cccc([N+](=O)[O-])c2)n2c(nc3ccccc32)c1C#N,10.9%
7,CCN(CC)S(=O)(=O)c1ccc(/C=C/C(=O)Nc2ccccc2N2CCOCC2)cc1,3.87%
8,O=C(CN1C(=O)C2C3CCC(C3)C2C1=O)Oc1ccc2ccccc2c1 (stereo not drawn),33.3%
9,CCOc1ccc(CCNC(=O)c2cccc(-n3cnnn3)c2)cc1OCC,-26.8%
10,CCCSc1ccc([C@H]2N[C@@](C)(C(=O)OC)[C@H]3C(=O)N(C)C(=O)[C@@H]23)cc1.O=C(O)C(F)(F)F,4.39%
11,CC(C)C(NC(=O)c1ccc2c(c1)OCO2)C(=O)N/N=C\c1ccco1 (stereo not drawn),2.3%
12,Cc1ccccc1COc1ccc(/C=C(\C#N)C(N)=O)cc1,21.2%
13,O=S(=O)(NCc1ccccc1)c1ccc(S(=O)(=O)NCC2CCCO2)cc1 (stereo not drawn),13.5%
14,COc1ccc(NC(=O)/C(C#N)=C\c2cc(C)n(-c3ccc(Oc4ccc([N+](=O)[O-])cn4)cc3)c2C)cc1,10.8%
15,O=C(Nc1ccc(F)cc1)C(Cc1ccccc1)n1cccc1 (stereo not drawn),-9.4%
16,C#CCN(C(=O)c1ccc(OC2CCN(C(=O)CCOC)CC2)cc1)C1CCCCC1,17.9%
17,Cn1cc(C2N3CC4(C)CN2CC(C)(C3)C4=O)c2ccccc21 (stereo not drawn),19.8%
18,Cc1ccccc1-c1noc(C2CCCCC2)n1,7.77%
19,COCCn1c(C)cc(C(=O)COC(=O)c2ccc([N+](=O)[O-])o2)c1C,-26.7%
20,COC(=O)c1ccc(NC(=S)NCCCN2CCCC2=O)cc1,3.58%
21,N#CC1(Nc2ccccc2)C(=O)Nc2ccccc21 (stereo not drawn),-2.17%
22,O=C(NCc1ccccc1)OCCN1CCN(Cc2ccccc2)CCC1=O,0.631%
23,O=C(NCCc1ccc(Cl)cc1)c1cc(-c2ccccn2)nc2ccccc12,20.3%
24,Cc1noc(C)c1COc1ccc(C(=O)OCC(=O)Nc2cccc(S(=O)(=O)N3CCOCC3)c2)cc1,2.47%
